{"source": "the supplement of paper PMC3724861", "note": "This is one part of the list.", "data": [{"test_system": "T1, Caupolican (Caup) homeodomain DNA-binding domain", "T1 sequence": "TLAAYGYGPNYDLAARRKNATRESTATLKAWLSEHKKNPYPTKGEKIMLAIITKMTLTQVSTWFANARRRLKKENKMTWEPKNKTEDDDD", "experiment": "PBM E-score (8-mer, recovered from the published 9-mer minima) (E-score (dimensionless, -0.5 to 0.5)); Drosophila protein; higher = stronger relative binding preference, active = 0.31 or more", "how_it_was_run": "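Caup's homeodomain DNA-binding domain (residues 214-303) was made by in vitro transcription and translation and applied at 100 nM to custom-designed protein binding microarrays. Each value is an enrichment score that gives relative binding preference for a short DNA word, with higher meaning stronger. The 8-mer values were recovered from published 9-mer scores, each of which was the minimum of its two constituent 8-mer scores. A cutoff of 0.31 marks candidate sites.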", "values": [{"sequence": "AGTGGACG", "PBM E-score": "inactive: 0.00183"}, {"sequence": "ACTATTTG", "PBM E-score": "inactive: 0.153"}, {"sequence": "GACCCCGC", "PBM E-score": "inactive: -0.186"}, {"sequence": "ACGTTGCA", "PBM E-score": "inactive: 0.0715"}, {"sequence": "GAAGACGA", "PBM E-score": "inactive: -0.027"}, {"sequence": "ATTCGAAT", "PBM E-score": "inactive: 0.0996"}, {"sequence": "ATGCCGAA", "PBM E-score": "inactive: -0.0191"}, {"sequence": "CCACCCTC", "PBM E-score": "inactive: -0.162"}, {"sequence": "CCCAGGAA", "PBM E-score": "inactive: -0.0999"}, {"sequence": "CTTGGCTA", "PBM E-score": "≥ 0.00834"}, {"sequence": "TGCCCGCA", "PBM E-score": "≥ -0.0686"}, {"sequence": "ATATACGC", "PBM E-score": "inactive: 0.0323"}, {"sequence": "CGAAGTCC", "PBM E-score": "inactive: -0.149"}, {"sequence": "GTATAAGA", "PBM E-score": "inactive: 0.112"}, {"sequence": "GACCCTCA", "PBM E-score": "inactive: -0.187"}, {"sequence": "AATGCTGA", "PBM E-score": "inactive: 0.0809"}, {"sequence": "GCCGCTGA", "PBM E-score": "inactive: -0.126"}, {"sequence": "GAGACAGC", "PBM E-score": "inactive: -0.0488"}, {"sequence": "CCCACCTC", "PBM E-score": "inactive: -0.19"}, {"sequence": "AGCTTACG", "PBM E-score": "inactive: -0.0965"}, {"sequence": "AATTATGA", "PBM E-score": "inactive: 0.134"}, {"sequence": "GCAGATAA", "PBM E-score": "inactive: 0.00489"}, {"sequence": "CCAAGTCG", "PBM E-score": "inactive: -0.0916"}, {"sequence": "ATCGTGCG", "PBM E-score": "inactive: 0.0382"}, {"sequence": "CGCCTAAG", "PBM E-score": "inactive: -0.0812"}, {"sequence": "GAACTCCA", "PBM E-score": "inactive: 0.0163"}, {"sequence": "TCCACAGA", "PBM E-score": "inactive: -0.0276"}, {"sequence": "CGCCACTA", "PBM E-score": "inactive: -0.12"}, {"sequence": "CGGAGACG", "PBM E-score": "≥ -0.0273"}, {"sequence": "CGAACTGA", "PBM E-score": "inactive: -0.00138"}, {"sequence": "CCTGTTGA", "PBM E-score": "inactive: 0.132"}, {"sequence": "AGAGTACA", "PBM E-score": "inactive: 0.187"}, {"sequence": "ACCCCGCA", "PBM E-score": "inactive: -0.142"}, {"sequence": "AGACACCA", "PBM E-score": "inactive: 0.0767"}, {"sequence": "TAAGATCA", "PBM E-score": "inactive: 0.131"}, {"sequence": "GAATATGC", "PBM E-score": "inactive: 0.00016"}, {"sequence": "GCAAGCCA", "PBM E-score": "inactive: -0.0551"}, {"sequence": "GAGCGTTA", "PBM E-score": "inactive: -0.0189"}, {"sequence": "GATACGGA", "PBM E-score": "inactive: 0.0443"}, {"sequence": "CTACGGAC", "PBM E-score": "inactive: -0.0424"}, {"sequence": "ATTGGCAC", "PBM E-score": "inactive: 0.0808"}, {"sequence": "ATTACGGG", "PBM E-score": "inactive: 0.00511"}, {"sequence": "AGTTGTAT", "PBM E-score": "inactive: 0.231"}, {"sequence": "CTCGCTAA", "PBM E-score": "inactive: 0.067"}, {"sequence": "ATTCAAAT", "PBM E-score": "inactive: 0.145"}, {"sequence": "AGATCGCT", "PBM E-score": "inactive: -0.0259"}, {"sequence": "AGCAATAA", "PBM E-score": "inactive: 0.0348"}, {"sequence": "GACTTGCA", "PBM E-score": "inactive: 0.0909"}, {"sequence": "AACGGAAC", "PBM E-score": "inactive: 0.0201"}, {"sequence": "ATGCATGC", "PBM E-score": "inactive: 0.107"}, {"sequence": "TCGACCCA", "PBM E-score": "inactive: -0.0821"}, {"sequence": "AAAAACAG", "PBM E-score": "inactive: 0.0835"}, {"sequence": "AGGCAAAT", "PBM E-score": "inactive: 0.0372"}, {"sequence": "ATGTTATC", "PBM E-score": "active: 0.351"}, {"sequence": "CGGGAAGA", "PBM E-score": "≥ -0.0231"}, {"sequence": "AGGCGAGG", "PBM E-score": "inactive: -0.231"}, {"sequence": "ACAAACTG", "PBM E-score": "inactive: 0.0701"}, {"sequence": "CTACTGAC", "PBM E-score": "inactive: 0.0337"}, {"sequence": "ATACCGGG", "PBM E-score": "inactive: -0.0214"}, {"sequence": "GGTGTCAC", "PBM E-score": "inactive: 0.128"}, {"sequence": "GCCAGACA", "PBM E-score": "inactive: 0.0359"}, {"sequence": "AGTGCTGG", "PBM E-score": "inactive: -0.1"}, {"sequence": "TGTATCAA", "PBM E-score": "active: 0.315"}, {"sequence": "ACCCGAGC", "PBM E-score": "inactive: -0.0823"}, {"sequence": "AGAACTAT", "PBM E-score": "inactive: 0.0799"}, {"sequence": "AGTTATCA", "PBM E-score": "inactive: 0.112"}, {"sequence": "CGCCTCCG", "PBM E-score": "inactive: -0.187"}, {"sequence": "GAGCTATA", "PBM E-score": "inactive: -0.0524"}, {"sequence": "ATTCTCTG", "PBM E-score": "inactive: -0.021"}, {"sequence": "GGCCAACA", "PBM E-score": "inactive: 0.0188"}, {"sequence": "CCCAGCGA", "PBM E-score": "inactive: -0.18"}, {"sequence": "ACACAGAT", "PBM E-score": "inactive: 0.243"}, {"sequence": "CTACCTTC", "PBM E-score": "inactive: -0.0371"}, {"sequence": "ACGAGTTC", "PBM E-score": "inactive: 0.11"}, {"sequence": "CAAGACAG", "PBM E-score": "inactive: 0.0905"}, {"sequence": "AGACGGTG", "PBM E-score": "inactive: -0.141"}, {"sequence": "CAGCAATG", "PBM E-score": "inactive: 0.0573"}, {"sequence": "CTCATCGA", "PBM E-score": "inactive: -0.0758"}, {"sequence": "AAAGCAGC", "PBM E-score": "inactive: -0.05"}, {"sequence": "ACTACCCG", "PBM E-score": "inactive: -0.0238"}, {"sequence": "CAAAGACG", "PBM E-score": "inactive: -0.0927"}, {"sequence": "AACGCCAC", "PBM E-score": "inactive: -0.0639"}, {"sequence": "CATGATTA", "PBM E-score": "inactive: 0.206"}, {"sequence": "ACCTCTCA", "PBM E-score": "inactive: -0.0642"}, {"sequence": "ATGGGGAC", "PBM E-score": "inactive: -0.035"}, {"sequence": "CTACTAAC", "PBM E-score": "inactive: 0.125"}, {"sequence": "ATGCCGAC", "PBM E-score": "inactive: 0.0283"}, {"sequence": "GCCGCCGC", "PBM E-score": "inactive: -0.27"}, {"sequence": "ACCACAAT", "PBM E-score": "inactive: -0.00259"}, {"sequence": "GCCGTTCA", "PBM E-score": "inactive: -0.128"}, {"sequence": "GAGACCTA", "PBM E-score": "inactive: -0.124"}, {"sequence": "CCATAGAG", "PBM E-score": "inactive: -0.104"}, {"sequence": "AGAGTGGA", "PBM E-score": "inactive: 0.00953"}, {"sequence": "GCGACGAC", "PBM E-score": "inactive: -0.115"}, {"sequence": "GAACGCGC", "PBM E-score": "inactive: -0.11"}, {"sequence": "AGGTGAAA", "PBM E-score": "inactive: 0.0529"}, {"sequence": "ACTCACAA", "PBM E-score": "inactive: 0.0864"}, {"sequence": "CACCGATC", "PBM E-score": "inactive: 0.0175"}, {"sequence": "CAATGCCC", "PBM E-score": "inactive: -0.115"}, {"sequence": "CCACTAGC", "PBM E-score": "inactive: -0.138"}, {"sequence": "GCGGATCC", "PBM E-score": "inactive: -0.194"}, {"sequence": "CCACAAGG", "PBM E-score": "inactive: -0.023"}, {"sequence": "AATTCATG", "PBM E-score": "inactive: 0.148"}, {"sequence": "GCCCGTAA", "PBM E-score": "inactive: -0.0409"}, {"sequence": "AGAGTGCG", "PBM E-score": "inactive: -0.148"}, {"sequence": "AGATCTAA", "PBM E-score": "inactive: 0.0169"}, {"sequence": "CGACCGAA", "PBM E-score": "inactive: -0.149"}, {"sequence": "AAGGGTAT", "PBM E-score": "inactive: 0.0696"}, {"sequence": "GAAGTTGA", "PBM E-score": "inactive: -0.00745"}, {"sequence": "GGAATAGA", "PBM E-score": "inactive: 0.0847"}, {"sequence": "CAGAGAAG", "PBM E-score": "inactive: -0.132"}, {"sequence": "ATGCCGTG", "PBM E-score": "inactive: 0.0172"}, {"sequence": "AAGCTAGC", "PBM E-score": "inactive: -0.0853"}, {"sequence": "CCATAATC", "PBM E-score": "inactive: 0.0795"}, {"sequence": "AGGCTGAC", "PBM E-score": "inactive: -0.054"}, {"sequence": "ACTGACAG", "PBM E-score": "inactive: 0.0804"}, {"sequence": "CAGGCGTC", "PBM E-score": "inactive: -0.134"}, {"sequence": "ATGAACAG", "PBM E-score": "inactive: 0.22"}, {"sequence": "GTGAAAAA", "PBM E-score": "inactive: 0.0336"}, {"sequence": "CCCTTAGG", "PBM E-score": "inactive: -0.0863"}, {"sequence": "AGCGTTAG", "PBM E-score": "inactive: -0.0677"}, {"sequence": "ATGAATAG", "PBM E-score": "inactive: 0.1"}, {"sequence": "AGAGGAAC", "PBM E-score": "inactive: 0.00858"}, {"sequence": "CTCCTCCA", "PBM E-score": "inactive: -0.0912"}, {"sequence": "AGGTTTCC", "PBM E-score": "inactive: -0.0219"}, {"sequence": "AAAGCTGA", "PBM E-score": "inactive: -0.106"}, {"sequence": "AGCTTAGC", "PBM E-score": "inactive: -0.0158"}, {"sequence": "GTTATTTA", "PBM E-score": "inactive: 0.201"}, {"sequence": "ACGAGAGT", "PBM E-score": "≥ 0.0592"}, {"sequence": "CAATCGAC", "PBM E-score": "inactive: 0.115"}, {"sequence": "CCTCAAAC", "PBM E-score": "inactive: -0.0812"}, {"sequence": "CCACCCCG", "PBM E-score": "inactive: -0.124"}, {"sequence": "CCCTCCCC", "PBM E-score": "inactive: -0.196"}, {"sequence": "AACAATGA", "PBM E-score": "inactive: 0.244"}, {"sequence": "AATGTCTC", "PBM E-score": "inactive: 0.112"}, {"sequence": "ATTCTAAG", "PBM E-score": "inactive: 0.0807"}, {"sequence": "AGGTCCGA", "PBM E-score": "inactive: -0.0154"}, {"sequence": "CTAGCTCC", "PBM E-score": "inactive: -0.0844"}, {"sequence": "ACTCTTCT", "PBM E-score": "inactive: 0.00993"}, {"sequence": "GAAGAGGA", "PBM E-score": "inactive: -0.161"}, {"sequence": "AGAACGTA", "PBM E-score": "inactive: 0.06"}, {"sequence": "AATTAGCG", "PBM E-score": "inactive: 0.0216"}]}]}
